Some of the results follow.
Molecular target: T1, OsWOX13 (Oryza sativa, UniProt Q5QMM3 1-267)
T1 sequence: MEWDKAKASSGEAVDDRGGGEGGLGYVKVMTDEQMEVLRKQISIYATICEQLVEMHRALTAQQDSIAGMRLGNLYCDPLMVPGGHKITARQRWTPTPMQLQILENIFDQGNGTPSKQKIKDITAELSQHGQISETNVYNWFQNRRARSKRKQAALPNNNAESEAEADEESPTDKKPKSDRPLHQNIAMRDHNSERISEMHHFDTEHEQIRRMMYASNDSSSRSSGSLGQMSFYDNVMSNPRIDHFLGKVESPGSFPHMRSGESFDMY
Test: protein-binding microarray (RPBM); PBS, 2% BSA, 51.3 ng/ul salmon testes DNA, 50 uM zinc acetate, 200 nM TF, 25 C, 1 h; high values mean tight binding
Conditions: protein: recombinant; tags: N-terminal polyhistidine and DsRed monomer fusion (pET32a); label: CyDye5-dUTP incorporated in the synthesized complementary strand; 3' TTTTT single-stranded linker to array surface; dsDNA, one strand shown
How it was run: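 The binding signal is fluorescence intensity per array feature (arbitrary units). Readings came from an Axon 4000B scanner after a washed, 2% BSA-blocked, double-stranded custom Agilent array had been incubated for 1 h at 25 °C with 200 nM protein and 50 µM zinc acetate. The protein was a Ni–NTA-purified transcription factor fused N-terminally to polyhistidine and DsRed, expressed in E. coli BL21-CodonPlus.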

Point of comparison: “CGCAATTAGGAATTAATTTAGGCGGCCGAATTAAAGAAATCGGAGTCACCTAGTGCAG”, binding signal 34800 fluorescence intensity (a.u.). Against it:
- TGTCAAAATTTTGACTGTTACTCGTTGGGACTATGGACCTCGGAGTCACCTAGTGCAG — lower, 7630 fluorescence intensity (a.u.)
- TTTATAATTAGTGTTGTCTAGATTTATTGTACTATAATATCGGAGTCACCTAGTGCAG — lower, 29400 fluorescence intensity (a.u.)
- CGCCCTAAATGGAATGGCTCTCTTATCTTAGTTACGCTGTCGGAGTCACCTAGTGCAG — lower, 5140 fluorescence intensity (a.u.)
- CCTTGCAATCACACTAACAAGAGTATACAGAGCAAAACAGCGGAGTCACCTAGTGCAG — lower, 6210 fluorescence intensity (a.u.)
- CCCTAAATGGACATATACATACAAGGTAGTATAAAGGAGTCGGAGTCACCTAGTGCAG — lower, 17800 fluorescence intensity (a.u.)
- CAATAGAACAATTACTAATTAAATTATGTACGTACTAATACGGAGTCACCTAGTGCAG — lower, 7170 fluorescence intensity (a.u.)
- TTATAATTAGCTGTACGTAAAATAATGAGACCAAGCATGACGGAGTCACCTAGTGCAG — lower, 15300 fluorescence intensity (a.u.)
- GTATCCAAGATTCAATCACTCTCAGGTCATCAGGCGTGGCCGGAGTCACCTAGTGCAG — lower, 3160 fluorescence intensity (a.u.)
- GATTCTATTTATCAAATCATAATTAATAAATCCATTTGTTCGGAGTCACCTAGTGCAG — lower, 3770 fluorescence intensity (a.u.)
- TTGTTGTAATTATGTCATCGGTTTGTATTTAGTACCATATCGGAGTCACCTAGTGCAG — lower, 13500 fluorescence intensity (a.u.)
- GGGTGTAATTATAAAAGTGGAAACGAAACGAGACGAAATACGGAGTCACCTAGTGCAG — lower, 5560 fluorescence intensity (a.u.)
- TAATAAATTTGTTTCATCACTTGTGGAGATGTTTCAACCTCGGAGTCACCTAGTGCAG — lower, 13100 fluorescence intensity (a.u.)
- TGTTAATAATTATTATGGTAAAATTGTCTAAAATTCTGTTCGGAGTCACCTAGTGCAG — lower, 23500 fluorescence intensity (a.u.)
- TAGTGATTACATCACTACTGATAGCCTGATATATGGCAAGCGGAGTCACCTAGTGCAG — lower, 21500 fluorescence intensity (a.u.)
- CCAAATTTCTCTATTTATACTCTGACACAGCCATACAGGTCGGAGTCACCTAGTGCAG — lower, 16900 fluorescence intensity (a.u.)
- ACTTAGCACTTGATTACATATATTTTGGTCGTGTAGTTGTCGGAGTCACCTAGTGCAG — lower, 5480 fluorescence intensity (a.u.)
- CTCGGGATTGCTAATTAGCGCACGTGTGTTTCCAACAAATCGGAGTCACCTAGTGCAG — higher, 35100 fluorescence intensity (a.u.)
- CATGACTGAAGAGCAGAAGGTGTCTAGCTAGTTGCCTAGTCGGAGTCACCTAGTGCAG — lower, 6700 fluorescence intensity (a.u.)
- TAACATGATCTAAATTATGTATTGTCCTTCGCGAACAGTGCGGAGTCACCTAGTGCAG — lower, 11700 fluorescence intensity (a.u.)
- ACTTAATCAAATTTAAAGCACTTTCGTCTTATACCCTAACCGGAGTCACCTAGTGCAG — lower, 12400 fluorescence intensity (a.u.)
- TGATCAATTATCGGTGCATGTCTGTCCATTTCGATTATCACGGAGTCACCTAGTGCAG — lower, 14500 fluorescence intensity (a.u.)
- AGCAAATTAATTAACACAAATCGATCATGATTCGGATCTGCGGAGTCACCTAGTGCAG — lower, 27800 fluorescence intensity (a.u.)
- TTCGTCTCCCAATTTACACGCAATTTATGTAATTAGTTTTCGGAGTCACCTAGTGCAG — lower, 5660 fluorescence intensity (a.u.)
- AAATGATTATTCCCGTTTTGGCTATATTTATCCCATTAATCGGAGTCACCTAGTGCAG — lower, 18000 fluorescence intensity (a.u.)
- TCTTATGATCCAACACTGATTATCTAGCACTTCAAGGCCTCGGAGTCACCTAGTGCAG — lower, 5610 fluorescence intensity (a.u.)
- CACCTTAACTGTTACCGTGTGGTGTTGGAATCTCTCTCTTCGGAGTCACCTAGTGCAG — lower, 3880 fluorescence intensity (a.u.)
- GGAGATTGGATATGGGCTGGGCTTATGGGTTCATGGCCCACGGAGTCACCTAGTGCAG — lower, 18500 fluorescence intensity (a.u.)
- TCCTTAACGCTATATTCAATCTCATTCTGTCCACTCAGGTCGGAGTCACCTAGTGCAG — lower, 3620 fluorescence intensity (a.u.)
- TCCAGTGAGATTGGTTCTGTTGCGGAATCGCCGATCTGCGCGGAGTCACCTAGTGCAG — lower, 5920 fluorescence intensity (a.u.)
- GCTGTTAATTGTATACCCCACTTGGCCGCTATCTTTGACACGGAGTCACCTAGTGCAG — lower, 24200 fluorescence intensity (a.u.)
- TATTAATAGACGATTGCAGTGCACCGAAAGAAAGCGACCACGGAGTCACCTAGTGCAG — lower, 11600 fluorescence intensity (a.u.)
- TCGGCATAATTTGTATGACGTGTCCTATCACAACAAACTCCGGAGTCACCTAGTGCAG — lower, 6220 fluorescence intensity (a.u.)
- ATACTTAATTAATCATGCGCTAATGGCTCACCTCGTTTTGCGGAGTCACCTAGTGCAG — lower, 29600 fluorescence intensity (a.u.)
- GACAAATTTGTACCGTGTATCGATGGCACTTCTTATCTATCGGAGTCACCTAGTGCAG — lower, 8130 fluorescence intensity (a.u.)
- AAGATATGTGGGATAATTGACTGTTTATGCCTAAATATATCGGAGTCACCTAGTGCAG — lower, 22400 fluorescence intensity (a.u.)
- GATAGATTGATCAGACATCATGGCCGAGTATGGATTGGAGCGGAGTCACCTAGTGCAG — higher, 36200 fluorescence intensity (a.u.)
- ACTTAACTGGGATTTCCCGGTATAAACGATTTCACTGGTACGGAGTCACCTAGTGCAG — lower, 20000 fluorescence intensity (a.u.)
- TTCGTAATCATTTGACCAACAAGTGGGGAGGTACTACACGCGGAGTCACCTAGTGCAG — lower, 4030 fluorescence intensity (a.u.)
- CATGACAAACTGCAATTGCTATTAATTCTCTGCAGAAATGCGGAGTCACCTAGTGCAG — lower, 8330 fluorescence intensity (a.u.)
- TAGATTGATAAGTACAATTGTATCTATAGAAACATAAGATCGGAGTCACCTAGTGCAG — lower, 30600 fluorescence intensity (a.u.)
- TAATAATGTCCAATCCTGCAATGAAGATAGAGAAACCCAACGGAGTCACCTAGTGCAG — lower, 3470 fluorescence intensity (a.u.)
